Source: article PMC10368634
Results are given in words; binding and its absence hold for the method and conditions named. In cells and extracts the contact can be indirect. Some binding calls cover weakened binding; strength is not graded here. Blank lines part the entries; values can stand above or below the substance they belong to.

The chains behind the UniProt entries cited, without tags or fusion partners. Where a name states a change or a piece, a line headed by the entry shows the natural chain unless it says otherwise. A line that says so, or that is headed by a name, gives the form on record, which may keep a tag or linker. Residues count along the entry.
UniProt P09211: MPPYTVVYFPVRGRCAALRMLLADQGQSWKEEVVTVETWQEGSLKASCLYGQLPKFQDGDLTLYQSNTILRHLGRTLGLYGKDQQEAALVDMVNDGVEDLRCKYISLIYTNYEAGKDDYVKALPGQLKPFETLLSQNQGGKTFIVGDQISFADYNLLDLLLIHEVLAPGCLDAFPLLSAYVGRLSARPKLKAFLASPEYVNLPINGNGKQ
GFP-fused GSTP1 D1 region (1-70): residues 1-70 of P09211
GFP-fused GSTP1 D2 region: residues 71-140 of P09211
GFP-fused GSTP1 D3 region (141-210): residues 141-210 of P09211

Legend:
[1] = biological target: G6PD (glucose-6-phosphate dehydrogenase), endogenous (human (endogenous in MCF-7, Bcap37, 293T, HeLa, HepG2 and human breast tissue)) (UniProt P11413); assay: co-IP; endogenous G6PD immuno-enriched from lysates of 13 human breast cancer samples and adjacent normal tissues; SRC and GSTP1 detected by Western blot
[2] = biological target: G6PD (glucose-6-phosphate dehydrogenase), endogenous (human (endogenous in MCF-7, Bcap37, 293T, HeLa, HepG2 and human breast tissue)) (UniProt P11413); assay: co-IP; endogenous proteins; MCF-7, HeLa, HepG2 lysates, 0.5 mM glucose without or with 20 mM lactic acid for 12 h; anti-G6PD antibody overnight at 4 °C, protein A/G agarose, Western blot
[3] = biological target: Flag-tagged G6PD 2YF mutant (Y249F/Y322F) (human) (UniProt P11413); assay: co-IP; HA-SRC or HA-GSTP1 co-transfected with Flag-G6PD WT or mutants (2YF/2YA) for 24 h; Flag-tagged G6PD immunopurified and immunoblotted
[4] = biological target: Flag-tagged G6PD, wild type (human) (UniProt P11413); assay: as above
[5] = biological target: Flag-tagged G6PD 2YA mutant (Y249A/Y322A) (human) (UniProt P11413); assay: as above
[6] = biological target: Flag-tagged GSTP1 (human) (UniProt P09211); assay: co-IP; Flag-tagged GSTP1 overexpressed in MCF-7, Bcap37 and 293T for 24 h; glc medium (0.5 mM glucose), lac medium (plus 20 mM lactic acid) or NBDHEX medium (plus 10 uM NBDHEX) for 12 h; Flag (M2) beads, HEPES-lysis buffer, Western blot
[7] = biological target: GFP-fused GSTP1 D1 region (1-70) (human) (UniProt P09211); assay: co-IP; GFP or GFP fusions of GSTP1 (full length, D1, D2, D3) overexpressed in MCF-7 cells, anti-GFP beads, Western blots; also in glucose-deprived (0.5 mM) media without or with 20 mM lactic acid
[8] = biological target: GFP-fused full length GSTP1 (glutathione S-transferase pi) (human) (UniProt P09211); assay: as above
[9] = biological target: GFP-fused GSTP1 D2 region (human) (UniProt P09211); assay: as above
[10] = biological target: GFP-fused GSTP1 D3 region (141-210) (human) (UniProt P09211); assay: as above

- binding [1]: binds
- binding [2]: binds
Substance: GSTP1 (glutathione S-transferase pi), endogenous (from UniProt P09211 1-210) (enzyme)

- binding [3]: binds weakly
- binding [4]: binds
- binding [5]: binds weakly
Substance: HA-GSTP1 (from UniProt P09211 1-210)

- binding [6]: binds
- binding [7]: binds
- binding [8]: binds
- binding [9]: no binding
- binding [10]: binds
Substance: G6PD (glucose-6-phosphate dehydrogenase), endogenous (from UniProt P11413 1-515) (enzyme)
